Reference: PMC12462500, “MRAP2 modifies the signaling and oligomerization state of the melanocortin-4 receptor” (Nature Communications, 2025)

Molecular target: the molecule itself
Experiment: molecular brightness (SpIDA); confocal images of the basolateral membrane of HEK293AD cells with SNAP-tagged receptors labelled with SNAP-Surface647; SNAP-β1AR as the monomeric reference

B1: SNAP-tagged human melanocortin-4 receptor (SNAP-MC4R) (receptor, UniProt P32245 1-332, looked up)
chain: MVNSTHRGMHTSLHLWNRSSYRLHSNASESLGKGYSDGGCYEQLFVSPEVFVTLGVISLLENILVIVAIAKNKNLHSPMYFFICSLAVADMLVSVSNGSETIVITLLNSTDTDAQSFTVNIDNVIDSVICSSLLASICSLLSIAVDRYFTIFYALQYHNIMTVKRVGIIISCIWAACTVSGILFIIYSDSSAVIICLITMFFTMLALMASLYVHMFLMARLHIKRIAVLPGTGAIRQGANMKGAITLTILIGVFVVCWAPFFLHLIFYISCPQNPYCVCFMSHFNLYLILIMCNSIIDPLIYALRSQELRKTFKEIICCYPLGGLCDLSSRY
modifications: SNAP-tag labelled with SNAP-Surface647 or SNAP-Surface549 dye
notes: human melanocortin-4 receptor (hMC4R), wild type, in pcDNA3 or pVITRO2; The tag order Igκ-HA-ST-SNAP is told for the pVITRO2 construct; also called SNAP-MC4R-WT; SNAP-hMC4R; source: HEK293 (HEK293T, HEK293AD), transiently transfected, on live cells; not shown: SNAP-tag, N-terminal, kept
With B1 the “molecular brightness relative to a monomer” value was roughly 1.7 times and the “stoichiometry N” value was roughly 2.
